Assay results as given in patent publication US9974800B2 (priority 2014, dated 2018).
Where two headings read alike, the source gives them in different places.

Test system: Primary Human Macrophage Cells
Procedure: Primary human macrophage cells were seeded at 1×10^5 cells/well in 100 μl 10% RPMI 1640 medium (Biocoat collagen I-coated 96 well plates). The next day, the medium was removed and 100 μl medium containing different concentration of drugs was added. 48 h post treatment, cytotoxicity was measured using Dojindo's Cell Counting Kit-8 (CCK-8), which utilizes Dojindo's highly water-soluble tetrazolium salt (WST). WST-8 produces a water-soluble formazan dye upon reduction in the presence of an electron mediator. The viability was calculated with regard to the untreated cell control, which was set to 100% viability.
The Table below provides a listing of the concentration of drugs and drug combinations tested and their effect on primary human macrophage cell toxicity.

SMILES | Cytotoxic to Primary Human Macrophage Cells? (60 μM) | Cytotoxic to Primary Human Macrophage Cells? (75 μM) | Cytotoxic to Primary Human Macrophage Cells? (90 μM) | Cytotoxic to Primary Human Macrophage Cells? (120 μM) | Cytotoxic to Primary Human Macrophage Cells? (150 μM) | Cytotoxic to Primary Human Macrophage Cells? (180 μM) | Cytotoxic to Primary Human Macrophage Cells? (210 μM) | Cytotoxic to Primary Human Macrophage Cells? (240 μM) | Cytotoxic to Primary Human Macrophage Cells? (270 μM) | Cytotoxic to Primary Human Macrophage Cells? (300 μM) | Cytotoxic to Primary Human Macrophage Cells? (330 μM) | Cytotoxic to Primary Human Macrophage Cells? (360 μM) | further results
CC(C)/N=c1\cc2n(-c3ccc(Cl)cc3)c3ccccc3nc-2cc1Nc1ccc(Cl)cc1 [Clofazamine, Clofazimine] | – | – | – | – | – | – | – | – | – | – | – | – | Cytotoxic to Primary Human Macrophage Cells? (6 μM): No; Cytotoxic to Primary Human Macrophage Cells? (7 μM): No; Cytotoxic to Primary Human Macrophage Cells? (8 μM): No; Cytotoxic to Primary Human Macrophage Cells? (9 μM): No
CC[C@H]1OC(=O)[C@H](C)[C@@H](O[C@H]2C[C@@](C)(OC)[C@@H](O)[C@H](C)O2)[C@H](C)[C@@H](O[C@@H]2O[C@H](C)C[C@H](N(C)C)[C@H]2O)[C@](C)(OC)C[C@@H](C)C(=O)[C@H](C)[C@@H](O)[C@]1(C)O [Clarithromycin] | No | No | No | No | No | No | No | Yes | Yes | Yes | Yes | Yes | –
O=C(NCc1ccncc1)C12CC3CC(C1)CC(c1ccc(Cl)cc1)(C3)C2 [ABC294640, 3-(4-chlorophenyl)-adamantane-1-carboxylic acid (pyridin-4-ylmethyl)amide] | Yes | – | – | – | – | – | – | – | – | – | – | – | Cytotoxic to Primary Human Macrophage Cells? (2.5 μM): No; Cytotoxic to Primary Human Macrophage Cells? (5.0 μM): No; Cytotoxic to Primary Human Macrophage Cells? (10 μM): No; Cytotoxic to Primary Human Macrophage Cells? (20 μM): Yes; Cytotoxic to Primary Human Macrophage Cells? (40 μM): Yes; Cytotoxic to Primary Human Macrophage Cells? (80 μM): Yes; Cytotoxic to Primary Human Macrophage Cells? (100 μM): Yes
CO[C@H]1/C=C/O[C@@]2(C)Oc3c(C)c(O)c4c(c3C2=O)C2=NC3(CCN(CC(C)C)CC3)NC2=C(NC(=O)/C(C)=C\C=C\[C@H](C)[C@H](O)[C@@H](C)[C@@H](O)[C@@H](C)[C@H](OC(C)=O)[C@@H]1C)C4=O [Rifabutin] | No | Yes | Yes | Yes | Yes | Yes | Yes | Yes | Yes | Yes | Yes | Yes | Cytotoxic to Primary Human Macrophage Cells? (30 μM): No; Cytotoxic to Primary Human Macrophage Cells? (45 μM): No
O=c1[nH]c(=O)n(C2CC(O)C(CO)O2)cc1/C=C/Br (stereo not drawn) [Brivudine, (E)-5-(2-bromovinyl)-2-deoxyuridine] | – | – | No | No | No | No | No | No | No | Yes | Yes | Yes | –
